Assay [1] has as its target Tas deletion mutant (1 to 222 aa), containing the DNA binding domain (prototype foamy virus (PFV)) (UniProt P14353). In words: co-IP; HEK293T cells transfected 48 h; lysis in 50 mM Tris, 150 mM NaCl, 2 mM EDTA, 3% glycerol, 1% Triton X-100; antibodies (Flag or HA) 3 h at 4°C, Protein A-agarose, six washes; Western blot. On the technique in general: Immunoblotting shows a protein as a band on a membrane.

Chains of the proteins cited; added tags and fusions are not shown.
UniProt O00141: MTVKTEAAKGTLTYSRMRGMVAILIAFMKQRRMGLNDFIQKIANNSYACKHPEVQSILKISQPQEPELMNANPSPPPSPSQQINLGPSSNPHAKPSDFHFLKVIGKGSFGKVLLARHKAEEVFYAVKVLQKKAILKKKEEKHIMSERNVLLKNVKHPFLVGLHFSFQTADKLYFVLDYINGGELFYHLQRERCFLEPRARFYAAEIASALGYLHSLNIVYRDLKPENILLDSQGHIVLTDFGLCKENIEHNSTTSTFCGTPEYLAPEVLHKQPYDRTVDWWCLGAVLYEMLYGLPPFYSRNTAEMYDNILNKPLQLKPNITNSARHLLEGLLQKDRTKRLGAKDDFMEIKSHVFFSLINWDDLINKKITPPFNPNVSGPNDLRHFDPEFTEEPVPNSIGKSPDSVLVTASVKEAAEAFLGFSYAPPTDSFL

Assay [2] has as its target T1, prototype foamy virus Tas protein (Flag-Tas) (prototype foamy virus (PFV)) (UniProt P14353).
T1 sequence: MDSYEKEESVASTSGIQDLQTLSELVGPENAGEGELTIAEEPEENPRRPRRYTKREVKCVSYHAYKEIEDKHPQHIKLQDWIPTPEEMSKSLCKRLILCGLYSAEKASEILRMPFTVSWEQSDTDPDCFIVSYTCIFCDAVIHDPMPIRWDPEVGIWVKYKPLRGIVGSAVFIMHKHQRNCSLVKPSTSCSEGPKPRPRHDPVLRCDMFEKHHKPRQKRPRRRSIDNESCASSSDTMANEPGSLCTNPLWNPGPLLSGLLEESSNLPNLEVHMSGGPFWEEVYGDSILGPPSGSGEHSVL
The assay is described as above.

For assay [3], the target named is Tas deletion mutant (215 to 300 aa), containing the activation domain (prototype foamy virus (PFV)) (UniProt P14353). The description is as above.
For assay [4], the target named is T1, prototype foamy virus Tas protein (Flag-Tas) (prototype foamy virus (PFV)). The experiment in a line: cross-linking; HEK293T cells transfected with Flag-Tas and empty vector or HA-SGK1; lysate supernatant incubated with cross-linking buffer at room temperature for 30 min; Western blot.
For assay [5] the target is unchanged. In words: co-IP; HEK293T cells transfected 48 h; lysis in 50 mM Tris, 150 mM NaCl, 2 mM EDTA, 3% glycerol, 1% Triton X-100; antibodies (Flag or HA) 3 h at 4°C, Protein A-agarose, six washes; Western blot. This is another data set of the same source.
In assay [6] the target is P62 (also known as sequestosome 1) (human (endogenous in HT1080)) (UniProt Q13501). The experiment in a line: co-IP; HT1080 cells infected with PFV stock (MOI = 1.0), 48 h; precipitation with IgG and p62 antibodies; Western blot with Gag, Tas and p62 antibodies.

These are yes or no findings as the source states them, for the method shown. Binding seen in cells or lysates may run through a third protein. Some entries that bind do so weakly or less than the wild type. For part of these data: Sequences can lack the tags named with a protein.

For the molecule “human serum/glucocorticoid regulated kinase 1 (HA-SGK1) (from UniProt O00141 1-431) (enzyme)”, the binding entry was “no binding” in assay [1], “binds” in assay [2] and “binds” in assay [3].

B1: prototype foamy virus Tas protein (Flag-Tas) (natural protein)
chain: MDSYEKEESVASTSGIQDLQTLSELVGPENAGEGELTIAEEPEENPRRPRRYTKREVKCVSYHAYKEIEDKHPQHIKLQDWIPTPEEMSKSLCKRLILCGLYSAEKASEILRMPFTVSWEQSDTDPDCFIVSYTCIFCDAVIHDPMPIRWDPEVGIWVKYKPLRGIVGSAVFIMHKHQRNCSLVKPSTSCSEGPKPRPRHDPVLRCDMFEKHHKPRQKRPRRRSIDNESCASSSDTMANEPGSLCTNPLWNPGPLLSGLLEESSNLPNLEVHMSGGPFWEEVYGDSILGPPSGSGEHSVL
notes: also called PFV Tas; Myc-Tas; source: HEK293T, transfected, in lysate
For B1, the binding result in assay [4] and in assay [5] was “binds” each time.

B2: PFV Tas made in PFV-infected cells (protein, UniProt P14353 1-300)
chain: MDSYEKEESVASTSGIQDLQTLSELVGPENAGEGELTIAEEPEENPRRPRRYTKREVKCVSYHAYKEIEDKHPQHIKLQDWIPTPEEMSKSLCKRLILCGLYSAEKASEILRMPFTVSWEQSDTDPDCFIVSYTCIFCDAVIHDPMPIRWDPEVGIWVKYKPLRGIVGSAVFIMHKHQRNCSLVKPSTSCSEGPKPRPRHDPVLRCDMFEKHHKPRQKRPRRRSIDNESCASSSDTMANEPGSLCTNPLWNPGPLLSGLLEESSNLPNLEVHMSGGPFWEEVYGDSILGPPSGSGEHSVL
For B2, the binding entry in assay [6] is “no binding”.

For the origin of these results see publication PMC9241813, “SGK1, a Serine/Threonine Kinase, Inhibits Prototype Foamy Virus Replication” (Microbiology Spectrum, 2022).
